Results reported in the supplement of paper PMC11741623.
The other results are listed elsewhere or left out. Interaction screen of human proteins with wild-type SARS-CoV-2 proteins by split-DHFR complementation in yeast, 1 µg/mL methotrexate. Value = fitness of the pair (three or more lineages) minus that of the viral protein without a human partner, on a scale set by negative (0) and fused positive (1) controls, mean of up to three cultures; higher = more likely to interact. Active = false discovery rate below 0.05 (one-sided t-test) in at least one culture. Nearly all pairs are not hits, and differences among them are mostly noise (correlation between cultures about 0.3); most hits were seen in one culture only. Human sequences are the Swiss-Prot entries looked up by gene name; the clone may be another isoform. NSP2 values were corrected by the authors for a growth advantage. Listed are human proteins with a hit and a random twelfth of the others.

B1: WARS2, Q9UGM6 (protein)
chain: MALHSMRKARERWSFIRALHKGSAAAPALQKDSKKRVFSGIQPTGILHLGNYLGAIESWVRLQDEYDSVLYSIVDLHSITVPQDPAVLRQSILDMTAVLLACGINPEKSILFQQSQVSEHTQLSWILSCMVRLPRLQHLHQWKAKTTKQKHDGTVGLLTYPVLQAADILLYKSTHVPVGEDQVQHMELVQDLAQGFNKKYGEFFPVPESILTSMKKVKSLRDPSAKMSKSDPDKLATVRITDSPEEIVQKFRKAVTDFTSEVTYDPAGRAGVSNIVAVHAAVTGLSVEEVVRRSAGMNTARYKLAVADAVIEKFAPIKREIEKLKLDKDHLEKVLQIGSAKAKELAYTVCQEVKKLVGFL
B2: XKR3, Q5GH77 (protein)
chain: METVFEEMDEESTGGVSSSKEEIVLGQRLHLSFPFSIIFSTVLYCGEVAFGLYMFEIYRKANDTFWMSFTISFIIVGAILDQIILMFFNKDLRRNKAALLFWHILLLGPIVRCLHTIRNYHKWLKNLKQEKEETQVSITKRNTMLEREIAFSIRDNFMQQKAFKYMSVIQAFLGSVPQLILQMYISLTIREWPLNRALLMTFSLLSVTYGAIRCNILAIQISNDDTTIKLPPIEFFCVVMWRFLEVISRVVTLAFFIASLKLKSLPVLLIIYFVSLLAPWLEFWKSGAHLPGNKENNSNMVGTVLMLFLITLLYAAINFSCWSAVKLQLSDDKIIDGRQRWGHRILHYSFQFLENVIMILVFRFFGGKTLLNCCDSLIAVQLIISYLLATGFMLLFYQYLYPWQSGKVLPGRTENQPEAPYYYVNIEKTEKNKNKQLRNYCHSCNRVGYFSIRKSMTCS

The binders below were run against SARS-CoV-2 E (assay: yeast fitness gain over the viral ORF with no human partner (scaled fitness); higher = more likely to interact).
Experimental: (§1)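 Split mouse DHFR complementation in pooled diploid yeast: human ORFeome clones carry one fragment and viral ORFs the other; barcoded lineages compete in 1 µg/mL methotrexate and fitness is read by barcode sequencing in up to three cultures.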
In the case of B1, the yeast fitness gain is reported as inactive: 0.0241. With B2 the yeast fitness gain was inactive: 0.148.

These binders were tested against SARS-CoV-2 M in the same assay as above.
Experimental: as §1
B1 was tested, and the yeast fitness gain was inactive: 0.0175. With B2 the yeast fitness gain was inactive: 0.0424.

The binders below were run against SARS-CoV-2 N in the same assay as above.
Experimental: as §1
B1 was tested, and the yeast fitness gain was inactive: -0.0238. With B2 the yeast fitness gain was inactive: 0.0113.

What follows are binders tested against SARS-CoV-2 NSP1 in the same assay as above.
Experimental: as §1
In the case of B1, the yeast fitness gain is reported as inactive: 0.119. B2 was tested, and the yeast fitness gain was inactive: 0.0633.

What follows are binders tested against SARS-CoV-2 NSP10 in the same assay as above.
Experimental: as §1
For B1, the yeast fitness gain was inactive: 0.0246. B2 was tested, and the yeast fitness gain was inactive: 0.00322.

The binders below were run against SARS-CoV-2 NSP12 in the same assay as above.
Experimental: as §1
For B1, the yeast fitness gain was inactive: -0.0216. B2 was tested, and the yeast fitness gain was inactive: 0.04.

Each binder was assayed against SARS-CoV-2 NSP13 in the same assay as above.
Experimental: as §1
In the case of B1, the yeast fitness gain is reported as inactive: 0.0183. With B2 the yeast fitness gain was inactive: 0.00974.

What follows are binders tested against SARS-CoV-2 NSP14 in the same assay as above.
Experimental: as §1
B1 was tested, and the yeast fitness gain was inactive: -0.0616. With B2 the yeast fitness gain was inactive: 0.144.

These binders were tested against SARS-CoV-2 NSP15 in the same assay as above.
Experimental: as §1
In the case of B1, the yeast fitness gain is reported as inactive: 0.0607. In the case of B2, the yeast fitness gain is reported as inactive: -0.0342.

The binders below were run against SARS-CoV-2 NSP16 in the same assay as above.
Experimental: as §1
With B1 the yeast fitness gain was inactive: -0.102. B2 was tested, and the yeast fitness gain was inactive: 0.00736.

The binders below were run against SARS-CoV-2 NSP2 in the same assay as above.
Experimental: as §1
B1 was tested, and the yeast fitness gain was inactive: -0.128. In the case of B2, the yeast fitness gain is reported as inactive: -0.0683.

These binders were tested against SARS-CoV-2 NSP4 in the same assay as above.
Experimental: as §1
In the case of B1, the yeast fitness gain is reported as inactive: -0.0438. With B2 the yeast fitness gain was inactive: 0.0958.

Each binder was assayed against SARS-CoV-2 NSP5 in the same assay as above.
Experimental: as §1
With B1 the yeast fitness gain was inactive: -0.0126. B2 was tested, and the yeast fitness gain was inactive: -0.027.

The binders below were run against SARS-CoV-2 NSP6 in the same assay as above.
Experimental: as §1
For B1, the yeast fitness gain was inactive: 0.0107. With B2 the yeast fitness gain was inactive: 0.00696.

The binders below were run against SARS-CoV-2 NSP7 in the same assay as above.
Experimental: as §1
For B1, the yeast fitness gain was inactive: 0.0159. In the case of B2, the yeast fitness gain is reported as inactive: 0.0528.

These binders were tested against SARS-CoV-2 NSP8 in the same assay as above.
Experimental: as §1
B1 was tested, and the yeast fitness gain was inactive: 0.021. In the case of B2, the yeast fitness gain is reported as inactive: 0.0227.

Each binder was assayed against SARS-CoV-2 NSP9 in the same assay as above.
Experimental: as §1
B1 was tested, and the yeast fitness gain was inactive: 0.0542. With B2 the yeast fitness gain was inactive: -0.0112.

What follows are binders tested against SARS-CoV-2 ORF10 in the same assay as above.
Experimental: as §1
With B1 the yeast fitness gain was inactive: 0.0405. In the case of B2, the yeast fitness gain is reported as inactive: 0.00692.

Each binder was assayed against SARS-CoV-2 ORF3A in the same assay as above.
Experimental: as §1
For B1, the yeast fitness gain was inactive: 0.0366. B2 was tested, and the yeast fitness gain was inactive: -0.0425.

Each binder was assayed against SARS-CoV-2 ORF3B in the same assay as above.
Experimental: as §1
With B1 the yeast fitness gain was inactive: 0.00456. With B2 the yeast fitness gain was inactive: 0.00918.

What follows are binders tested against SARS-CoV-2 ORF6 in the same assay as above.
Experimental: as §1
For B1, the yeast fitness gain was inactive: 0.00323. In the case of B2, the yeast fitness gain is reported as inactive: 0.0243.

The binders below were run against SARS-CoV-2 ORF7A in the same assay as above.
Experimental: as §1
B1 was tested, and the yeast fitness gain was inactive: 0.0433. In the case of B2, the yeast fitness gain is reported as inactive: 0.0473.

The binders below were run against SARS-CoV-2 ORF7B in the same assay as above.
Experimental: as §1
In the case of B1, the yeast fitness gain is reported as inactive: -0.00361. With B2 the yeast fitness gain was inactive: -0.0154.

What follows are binders tested against SARS-CoV-2 ORF8 in the same assay as above.
Experimental: as §1
For B1, the yeast fitness gain was inactive: 0.0207. With B2 the yeast fitness gain was inactive: 0.0382.

The binders below were run against SARS-CoV-2 ORF9B in the same assay as above.
Experimental: as §1
B1 was tested, and the yeast fitness gain was inactive: -0.0219. B2 was tested, and the yeast fitness gain was inactive: 0.0155.

These binders were tested against SARS-CoV-2 ORF9Bwu (the 73-codon ORF) in the same assay as above.
Experimental: as §1
B1 was tested, and the yeast fitness gain was inactive: 0.0769. In the case of B2, the yeast fitness gain is reported as inactive: 0.0318.

Each binder was assayed against SARS-CoV-2 S in the same assay as above.
Experimental: as §1
In the case of B1, the yeast fitness gain is reported as inactive: -0.0628. With B2 the yeast fitness gain was inactive: 0.0191.
